{"source": "PubChem BioAssay AID1345083", "about": "(National Center for Advancing Translational Sciences (NCATS), 2018)", "note": "Hit rate of the full screen: of about 94,000 compounds, about 6,200 (6.6%) were called active. The shares of active, inactive and inconclusive entries below differ from those in the screen. Calls follow the shape of the dose curve; as a rule, active = well fitted inhibition curve with a large enough effect; inconclusive = small, poorly fitted or top-dose-only effect; inactive = flat fitted curve, though single readings scatter. Where the call is inconclusive, the potency comes from a doubtful curve fit. Potency is read from the fitted curve at half-maximal effect; tags tell the direction and shape of the fitted curve."}
{"test": "Cytotoxic Profiling in HEK 293 Cell Line of Diverse Libraries Using Quantitative High-Throughput Screening; also: nearly all actives have a fitted effect of over 60% in size", "details": "HEK 293 viability, ATP luminescence (CellTiter-Glo), 48-72 h; series mostly up to 115 µM", "outline": "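250 HEK 293 cells/well; compound by pintool; incubated 48 or 72 hr at 37 degree Celsius; CellTiter-Glo added, 10 min RT, luminescence imaged.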"}
{"compound": "COc1ccccc1C(=O)NC1CCN(c2ccc3nnc(C)n3n2)CC1", "Potency": "inactive"}
{"compound": "CC1(c2cccnc2)N(Cc2ccccc2)C(=O)OC12CCN(C(=O)c1cccc(Cl)c1)CC2", "note": "(stereo not drawn)", "Potency": "inactive"}
{"compound": "CCn1ccc(C(=O)N2CCC3(CC2)CC(N(Cc2ccccc2)C2CC2)CCO3)n1", "note": "(stereo not drawn)", "Potency": "inconclusive: 79.4 µM [inhibitor, single point]"}
{"compound": "O=Cc1cccc(N2CCN(C(=O)Nc3ccccc3)CC2=O)c1", "Potency": "inconclusive: 56.2 µM [inhibitor, partial curve, poor fit]"}
{"compound": "CN(C)C(=O)c1cccnc1OC1CCN(C(=O)Nc2ccc(F)cc2F)C1", "note": "(stereo not drawn)", "Potency": "inactive"}
{"compound": "COC(=O)NCCNC(=O)c1ccc(-c2cccc(OC)c2)cc1", "Potency": "inconclusive: 112 µM [inhibitor, partial curve, poor fit]"}
{"compound": "CC1(C)[C@H]2CC[C@@H](CNC(=O)C3CC3)[C@@H]1C2", "Potency": "inactive"}
{"compound": "Cc1ccc(C(=O)N2CCC3(CC2)CC(O)CCO3)cc1", "note": "(stereo not drawn)", "Potency": "inactive"}
{"compound": "CCN1C(=O)C2(CCN(S(=O)(=O)c3ccc(CC(C)C)cc3)CC2)c2ccccc21", "Potency": "inactive"}
{"compound": "CC(=O)N1CC2(CCN(C(=O)c3ccc(C)s3)CC2)CC1C(=O)O", "note": "(stereo not drawn)", "Potency": "inactive"}
{"compound": "Cc1ccccc1NC(=O)c1cnc2c(c1)N(C(=O)Cc1cn(C)c3ccccc13)CCC2", "Potency": "inconclusive: 12.6 µM [inhibitor, full curve, poor fit]"}
{"compound": "COc1ccc(OC)c(CN2CCC3(CC2)OC(=O)N(Cc2cccnc2)C3(C)c2ccccc2)c1", "note": "(stereo not drawn)", "Potency": "inconclusive: 39.8 µM [inhibitor, partial curve]"}
{"compound": "CC1=C[C@@H](CNC(=O)C2CC2)[C@H](C(C)C)C[C@H]1Cc1nc2ncccc2[nH]1", "Potency": "inconclusive: 112 µM [inhibitor, partial curve, poor fit]"}
{"compound": "Cc1ccc(-c2cccc(CN3CCCC(NC(=O)C(C)(C)C)C3)c2)cc1Cl", "note": "(stereo not drawn)", "Potency": "inconclusive: 89.1 µM [inhibitor, single point]"}
{"compound": "O=C(NCc1ccc(F)cc1)c1ccc2nnc(-c3ccc(Cl)cc3)n2c1", "Potency": "inconclusive: 50.1 µM [inhibitor, partial curve, poor fit]"}
{"compound": "O=C1c2c(nc(COc3cccc(F)c3)n2Cc2ccccc2)NCCN1CCOc1ccccc1", "Potency": "inconclusive: 31.6 µM [inhibitor, partial curve]"}
{"compound": "COc1ccccc1CCN1CCCC(CN(C)C(=O)C(=O)c2cccn2C)C1", "note": "(stereo not drawn)", "Potency": "inactive"}
{"compound": "COc1ccc(CCNC(=O)c2ccc3nnc(CC4CC4)n3c2)cc1", "Potency": "inactive"}
{"compound": "COCCNC(=O)Cc1ccc(N(Cc2ccc(F)cc2)C(=O)c2ccco2)cc1", "Potency": "inactive"}
{"compound": "COc1ccc(C(=O)N2CCC3(CC2)COc2ccccc2CN3)cc1", "Potency": "inconclusive: 39.8 µM [inhibitor, partial curve]"}
{"compound": "Cc1ncc(C(=O)N2CCCC(c3cc(N4CCOCC4)nc(C)n3)C2)cn1", "note": "(stereo not drawn)", "Potency": "inactive"}
{"compound": "CN(C)CCNc1cc(-c2ccc3ccccc3n2)c2cc[nH]c2n1", "Potency": "active: 39.8 µM"}
{"compound": "O=C(C1CCCC1)N1CC(c2noc(COc3ccccc3)n2)C1", "Potency": "inconclusive: 89.1 µM [inhibitor, single point]"}
{"compound": "Cc1cc(C(=O)N2CCOC(Cc3cccc(C(F)(F)F)c3)C2)nn1C", "note": "(stereo not drawn)", "Potency": "inconclusive: 89.1 µM [inhibitor, single point]"}
{"compound": "Cc1cccc(CC(=O)N2CCC(Cc3nc(C4CCOCC4)no3)CC2)c1", "Potency": "inconclusive: 89.1 µM [inhibitor, single point]"}
{"compound": "CC(C)c1ccc(CN2C[C@H]3[C@H](C2)[S+](=O)([O-])C(C)(C)C(=O)N3Cc2ccccc2)cc1", "Potency": "inconclusive: 50.1 µM [inhibitor, partial curve, poor fit]"}
{"compound": "COc1cccc(-c2cc3c(=O)n(CC(O)c4ccccc4)ccn3n2)c1", "note": "(stereo not drawn)", "Potency": "active: 35.5 µM"}
{"compound": "COc1cccc(-c2cccc(C(=O)N3CCCC3C(=O)N3CCCC(C)C3)c2)c1", "note": "(stereo not drawn)", "Potency": "inconclusive: 89.1 µM [inhibitor, single point]"}
{"compound": "COc1cc(NC(=O)N2CCC3(CC2)SCC(=O)N3Cc2ccco2)cc(OC)c1", "Potency": "inactive"}
{"compound": "O=C(NC1CCCc2c1[nH]c1ccccc21)c1cn(C2CC2)c(=O)c2ccccc12", "note": "(stereo not drawn)", "Potency": "inconclusive: 56.2 µM [inhibitor, partial curve, poor fit]"}
{"compound": "O=C1NCc2ccccc2CC12CCN(Cc1ccc(Oc3ccccc3)cc1)C2", "note": "(stereo not drawn)", "Potency": "inconclusive: 44.7 µM [inhibitor, partial curve, poor fit]"}
{"compound": "COc1ccc(CC(=O)N2CC[C@@H](CC(=O)O)[C@@H](CCN3C[C@@H]4C[C@H](C3)c3cccc(=O)n3C4)C2)cc1", "Potency": "inactive"}
{"compound": "COc1ccccc1-c1nc(C(=O)NCc2cccnc2)n2ccccc12", "Potency": "inconclusive: 20 µM [inhibitor, full curve, poor fit]"}
{"compound": "COc1ccc2cc(C(=O)N3CCC4(CC3)CC(c3nc(C)no3)N(C)C4)[nH]c2c1", "note": "(stereo not drawn)", "Potency": "inconclusive: 89.1 µM [inhibitor, partial curve, poor fit]"}
{"compound": "Cc1ccccc1CN1Cc2nc(-c3ccccc3)ccc2OCC1=O", "Potency": "active: 89.1 µM"}
{"compound": "CC(=O)N1CCN(c2ncnc3c2CN(C2CCCNCC2)C(=O)CN3C)CC1", "note": "(stereo not drawn)", "Potency": "inactive"}
{"compound": "CCc1nc2c(c(-c3ccc(O)cc3)n1)CCN(C(=O)Cc1cccc(Cl)c1)CC2", "Potency": "inactive"}
{"compound": "COc1cc(CN2CCN(Cc3ccon3)CC2CCO)cc(OC)c1", "note": "(stereo not drawn)", "Potency": "inactive"}
{"compound": "COCCC(=O)N1CCN(C(=O)N2CC3CC(C2)[C@H]2CCCC(=O)N2C3)CC1", "note": "(stereo partly drawn)", "Potency": "inactive"}
{"compound": "CCOC(=O)[C@@H]1CN(C(=O)C(CC)CC)[C@H]2c3cccc(C)c3O[C@@H]12", "Potency": "inactive"}
{"compound": "CN(Cc1ccc(-c2ccccc2)cc1)Cc1ccnn1C", "Potency": "active: 25.1 µM"}
{"compound": "COCc1cc(=O)n(CC(=O)Nc2cc(Cl)ccc2OC)c(N2CCOCC2)n1", "Potency": "inconclusive: 56.2 µM [inhibitor, partial curve, poor fit]"}
{"compound": "CCOC(=O)C1(Cc2ccc(F)cc2F)CCCN(C(=O)c2cccnc2SC)C1", "note": "(stereo not drawn)", "Potency": "inconclusive: 17.8 µM [inhibitor, full curve]"}
{"compound": "COc1cccc(CNC(=O)c2ccc(Cn3ccn4nc5c(c4c3=O)CCCC5)cc2)c1", "Potency": "inconclusive: 22.4 µM [inhibitor, full curve, poor fit]"}
{"compound": "CCn1cc(CN(C)CC2(O)CCCN(Cc3ccc(C(C)C)cc3)C2=O)cn1", "note": "(stereo not drawn)", "Potency": "inconclusive: 56.2 µM [inhibitor, partial curve, poor fit]"}
{"compound": "Cc1ncccc1C(=O)N1CCCN(Cc2ccncc2)C(c2ccccc2)CC(=O)NCC1", "note": "(stereo not drawn)", "Potency": "inactive"}
{"compound": "Cc1ccc(C(=O)N2CCC(CCC(=O)N3CCCCC3)CC2)cc1", "Potency": "inconclusive: 44.7 µM [inhibitor, partial curve]"}
{"compound": "O=C(NC1CCCN(c2cc(-c3ccc(F)cc3)[nH]n2)C1)c1ccc(F)c(F)c1", "note": "(stereo not drawn)", "Potency": "active: 44.7 µM"}
{"compound": "O=C(c1ccsc1)N1CCN(c2cc(C(F)(F)F)ncn2)CC1", "Potency": "inactive"}
{"compound": "Cc1ccc(CN2C[C@]34C=C[C@H](O3)C(C(=O)N(C)Cc3ccsc3)C4C2=O)cc1C", "note": "(stereo partly drawn)", "Potency": "inactive"}
{"compound": "CC(=O)N1CCC(N[C@H]2C[C@@H](Cc3cc(CN4CCCCC4)on3)C2(C)C)CC1", "Potency": "inconclusive: 100 µM [inhibitor, partial curve]"}
{"compound": "COc1ccc(NC(=O)c2nnn3c2CN(Cc2cccc(Cl)c2)C(=O)CC3)c(C)c1", "Potency": "inconclusive: 126 µM [inhibitor, single point]"}
{"compound": "O=C(NCc1ccco1)C1CC(c2ccccc2)CN(C(=O)c2ccccc2F)C1", "note": "(stereo not drawn)", "Potency": "inconclusive: 79.4 µM [inhibitor, single point]"}
{"compound": "CCOC(=O)C1CCCN(C(=O)c2cc(-c3cc(Cl)cc(Cl)c3)c3nncn3n2)C1", "note": "(stereo not drawn)", "Potency": "inconclusive: 56.2 µM [inhibitor, partial curve, poor fit]"}
{"compound": "O=C(Cn1nc2c(cc1=O)CCCC2)N1CCn2c(nnc2C(F)(F)F)C1", "Potency": "inactive"}
{"compound": "CCOC(=O)[C@H]1[C@@H](O)C(=O)N(Cc2ccccc2)C12CCN(C(=O)c1cccs1)CC2", "Potency": "inactive"}
{"compound": "O=C(NCc1ccncc1)c1nc2c(o1)CCN(Cc1ccc3[nH]ccc3c1)CC2", "Potency": "inconclusive: 31.6 µM [inhibitor, partial curve, poor fit]"}
{"compound": "O=C1Nc2ccccc2OCC12CCN(CC1CCCC1)CC2", "Potency": "inactive"}
{"compound": "COc1ccc(C(=O)N2CCc3nc(C4CC4)nc(-c4ccc(OC)cc4)c3CC2)cc1", "Potency": "inconclusive: 70.8 µM [inhibitor, partial curve, poor fit]"}
{"compound": "O=C(c1cc2n(n1)CC(c1ccc3c(c1)OCO3)OC2)N1CCN(c2ccccc2)CC1", "note": "(stereo not drawn)", "Potency": "inconclusive: 50.1 µM [inhibitor, partial curve, poor fit]"}
{"compound": "Cc1nn(-c2ccccc2[N+](=O)[O-])c(C)c1[C@@H]1C=C[C@@H](NS(=O)(=O)c2ccccc2)C1", "Potency": "inconclusive: 79.4 µM [inhibitor, partial curve, poor fit]"}
{"compound": "CC(C)c1noc(-c2cccn3c(CNC(=O)c4ccccc4Cl)nnc23)n1", "Potency": "inactive"}
{"compound": "CCOC(=O)C1CC1CN1CCCC12Cc1ccccc1CNC2=O", "note": "(stereo not drawn)", "Potency": "inactive"}
{"compound": "COc1ccccc1-c1[nH]nc2ncc(-c3cccc(CO)c3)nc12", "Potency": "inconclusive: 70.8 µM [inhibitor, partial curve, poor fit]"}
{"compound": "COc1ccc(C(=O)NC2CCN(c3cc(-c4ccc(F)cc4)[nH]n3)CC2)cc1", "Potency": "inconclusive: 89.1 µM [inhibitor, single point]"}
{"compound": "O=C(Nc1ccccc1)Nc1ccc([C@@H](O)[C@H]2COCC(=O)N2Cc2ccc(F)cc2)cc1", "Potency": "active: 79.4 µM"}
{"compound": "CC(C)C(=O)N1Cc2ccccc2CC2(CCN(Cc3ccc(O)cc3)CC2)C1", "Potency": "inconclusive: 79.4 µM [inhibitor, single point]"}
{"compound": "CCCC(C)c1c(-c2ccccc2)ncn1CCNC(C)=O", "note": "(stereo not drawn)", "Potency": "inactive"}
